PMC4242493
The list shows a part of the results. The list includes weakly bound sequences.

What follows are sequences tested against MaxL homodimer (UniProt P61244) (assay: universal protein-binding microarray (PBM)). Conditions: PBS-based mixture, 10 nM His-tagged protein dimer, 2% milk, 200 ng/uL BSA, 50 ng/uL salmon testes DNA, 0.02% TX-100; detection with Alexa 488 anti-His …; high values mean tight binding; most listed sequences are background and not binding sites; double strand, one strand shown.
Sequence of UniProt P61244 (P61244 whole entry): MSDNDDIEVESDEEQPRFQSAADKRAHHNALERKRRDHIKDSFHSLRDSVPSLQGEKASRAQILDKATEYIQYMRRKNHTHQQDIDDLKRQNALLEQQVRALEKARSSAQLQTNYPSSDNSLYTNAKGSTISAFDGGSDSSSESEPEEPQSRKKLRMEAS
Work on ACCATGGC yielded a binding signal (normalized occupancy) of 0.0734.
AGCCGGGA gave a binding signal (normalized occupancy) of 0.0687.
GATTGCAC showed a binding signal (normalized occupancy) of 0.0761.
Work on ACGACTCC yielded a binding signal (normalized occupancy) of 0.0749.
Sequence AACGAAGC has a binding signal (normalized occupancy) of 0.0706.
In the case of ACCACGCC, the binding signal (normalized occupancy) is reported as 0.102.
Work on ATGTAGCC yielded a binding signal (normalized occupancy) of 0.0773.
ATCCTTGG was tested, and the binding signal (normalized occupancy) was 0.0721.
With CGGAGACC the binding signal (normalized occupancy) was 0.069.
ACGTGTCA was tested, and the binding signal (normalized occupancy) was 0.0923.
For CCTTGAAA, the binding signal (normalized occupancy) was 0.0716.
For AGACTTCA, the binding signal (normalized occupancy) was 0.075.
In the case of AGCTCTGC, the binding signal (normalized occupancy) is reported as 0.0685.
With GGCTTCGA the binding signal (normalized occupancy) was 0.0706.
With AGTATCGA the binding signal (normalized occupancy) was 0.0752.
Work on ATGCCGTG yielded a binding signal (normalized occupancy) of 0.0804.
AGGACCTG was tested, and the binding signal (normalized occupancy) was 0.0688.
For AGAATCCC, the binding signal (normalized occupancy) was 0.0764.
Sequence CCCATTGA has a binding signal (normalized occupancy) of 0.0764.
ATCGCACC gave a binding signal (normalized occupancy) of 0.0771.
AACAGTAC was tested, and the binding signal (normalized occupancy) was 0.0779.
GGGCGTGA showed a binding signal (normalized occupancy) of 0.0932.
In the case of CGAGAGCA, the binding signal (normalized occupancy) is reported as 0.0754.
In the case of CTTGCTTA, the binding signal (normalized occupancy) is reported as 0.0751.
Sequence CGGCCCCG has a binding signal (normalized occupancy) of 0.0693.
In the case of CCCGTCCG, the binding signal (normalized occupancy) is reported as 0.0722.
ATAAGTCC was tested, and the binding signal (normalized occupancy) was 0.0745.
In the case of GAACCTGA, the binding signal (normalized occupancy) is reported as 0.0758.
GACAGCGC showed a binding signal (normalized occupancy) of 0.0686.
For ACTCCTTC, the binding signal (normalized occupancy) was 0.0708.
In the case of GTCAATTA, the binding signal (normalized occupancy) is reported as 0.0712.
For AATCCTGC, the binding signal (normalized occupancy) was 0.0719.
AACCCCAA was tested, and the binding signal (normalized occupancy) was 0.0752.
AGTTGTGG was tested, and the binding signal (normalized occupancy) was 0.0789.
With CCAGTTAA the binding signal (normalized occupancy) was 0.0685.
CCAAGGGG showed a binding signal (normalized occupancy) of 0.0697.
With GCAGAGGC the binding signal (normalized occupancy) was 0.0685.
For GCGAGAGC, the binding signal (normalized occupancy) was 0.0688.
For GAGCGCAC, the binding signal (normalized occupancy) was 0.0721.
In the case of AACCCGAT, the binding signal (normalized occupancy) is reported as 0.0713.
With CCAACCCC the binding signal (normalized occupancy) was 0.0798.
In the case of CATGAGAC, the binding signal (normalized occupancy) is reported as 0.0947.
With CGATGAAG the binding signal (normalized occupancy) was 0.0793.
AAATACAC showed a binding signal (normalized occupancy) of 0.0854.
ACCCACAG showed a binding signal (normalized occupancy) of 0.0767.
AGTTACTA gave a binding signal (normalized occupancy) of 0.073.
For AATCAATA, the binding signal (normalized occupancy) was 0.0734.
Sequence CCCTACCC has a binding signal (normalized occupancy) of 0.0777.
ACGCTGCG gave a binding signal (normalized occupancy) of 0.077.
With AATCATAC the binding signal (normalized occupancy) was 0.0806.
Sequence TCCTCACA has a binding signal (normalized occupancy) of 0.0783.
CGCGTGTC gave a binding signal (normalized occupancy) of 0.115.
Sequence GAGAACTC has a binding signal (normalized occupancy) of 0.0704.
GCGGTGGA gave a binding signal (normalized occupancy) of 0.0704.
AGATTTTC gave a binding signal (normalized occupancy) of 0.0729.
For AGCAGGTG, the binding signal (normalized occupancy) was 0.0935.
AGCACAAA gave a binding signal (normalized occupancy) of 0.0742.
ACCTTTGA gave a binding signal (normalized occupancy) of 0.076.
ACAATCCT was tested, and the binding signal (normalized occupancy) was 0.0736.
With ACTTGGAC the binding signal (normalized occupancy) was 0.0719.
In the case of AGGCTGAT, the binding signal (normalized occupancy) is reported as 0.0742.
AAGACACC gave a binding signal (normalized occupancy) of 0.0757.
Sequence CCAATGAC has a binding signal (normalized occupancy) of 0.0707.
GTACTGAC was tested, and the binding signal (normalized occupancy) was 0.0742.
Work on GACCGTGC yielded a binding signal (normalized occupancy) of 0.0746.
Sequence AAAGGCTA has a binding signal (normalized occupancy) of 0.0707.
With GACACCCC the binding signal (normalized occupancy) was 0.0775.
AGAGAGAC gave a binding signal (normalized occupancy) of 0.0677.
With GAATACTC the binding signal (normalized occupancy) was 0.0801.
CCAATCAC gave a binding signal (normalized occupancy) of 0.0792.
AGTGGGAT was tested, and the binding signal (normalized occupancy) was 0.0804.
Sequence GGAAAATA has a binding signal (normalized occupancy) of 0.0797.
With CCACTCTA the binding signal (normalized occupancy) was 0.0773.
With CCACAGTA the binding signal (normalized occupancy) was 0.0757.
With TAACCAAA the binding signal (normalized occupancy) was 0.0763.
With GTAGTCCA the binding signal (normalized occupancy) was 0.0722.
For GAAAATAC, the binding signal (normalized occupancy) was 0.0736.
CACGTGGG gave a binding signal (normalized occupancy) of 0.707.
For ATAAATGA, the binding signal (normalized occupancy) was 0.0825.
ATTCCCGG showed a binding signal (normalized occupancy) of 0.0687.
For TATACTAA, the binding signal (normalized occupancy) was 0.082.
CACATTAA showed a binding signal (normalized occupancy) of 0.0866.
Work on ACCGATAA yielded a binding signal (normalized occupancy) of 0.0716.
ACCGGACG showed a binding signal (normalized occupancy) of 0.0706.
AACCTGTC gave a binding signal (normalized occupancy) of 0.0786.
CTGACGGC was tested, and the binding signal (normalized occupancy) was 0.0673.
